Molecules are shown by their SMILES. Some of the results follow. The main result of the screen is listed elsewhere. These columns were measured beside it and carry no call.

What all share (experiment): Primary Screen for Target Class Profiling of Small Molecule Inhibitors of Methyltransferases
In assay [1] the target is Glycine N-methyltransferase (Homo sapiens) (UniProt Q14749). Particulars: purified enzyme, MTase-Glo SAH luminescence; measured here: GNMT inhibition; at 40 µM; stronger effect = lower value. An outline of the steps: (§1)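 Each enzyme was reacted with SAM and its substrate, with compounds tested once at 40 uM; SAH formed was read by MTase-Glo luminescence.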
The target in assay [2] is Guanidinoacetate N-methyltransferase (Homo sapiens) (UniProt Q14353). Particulars: purified enzyme, MTase-Glo SAH luminescence; measured here: GAMT inhibition; at 40 µM; stronger effect = lower value. An outline of the steps:
as §1

In assay [3] the target is Histamine N-methyltransferase (Homo sapiens) (UniProt P50135). The following applies: purified enzyme, MTase-Glo SAH luminescence; measured here: HNMT inhibition; at 40 µM; stronger effect = lower value. An outline of the steps:
as §1

The target of assay [4] is Nicotinamide N-methyltransferase (Homo sapiens) (UniProt P40261). Particulars: purified enzyme, MTase-Glo SAH luminescence; measured here: NNMT inhibition; at 40 µM; stronger effect = lower value. An outline of the steps:
as §1

Assay [5] addresses Phenylethanolamine N-methyltransferase (Homo sapiens) (UniProt P11086). Particulars: purified enzyme, MTase-Glo SAH luminescence; measured here: PNMT inhibition; at 40 µM; stronger effect = lower value. The procedure, abridged: as §1
% is set by controls: 0 for no effect and ±100 for the full control effect.

Take `CCCCc1ccc(-n2cc(CN3CCN(C(C)=O)CC(O)C3)cn2)cc1` (stereo not drawn): the activity change, negative = inhibition in assay [1] is -7.27%; in assay [2], -13%; in assay [3] it was -4.41%; in assay [4], -20%; in assay [5], -26.7%.
`CC(=O)Nc1c2n(c3ccccc13)CC(C)(C(=O)NC1CCCC1)N(C1CCC(C)CC1)C2=O` (stereo not drawn): the activity change, negative = inhibition is 3.31% in assay [1]; 0% in assay [2]; 2.68% in assay [3]; -1.75% in assay [4]; 1.68% in assay [5].
Regarding `C=CCn1c(=O)c2ccc(C(=O)NCC(C)C)cc2n2c(=O)n(CC(=O)N(C)c3ccccc3)nc12`, the activity change, negative = inhibition was -3.96% in assay [1]; -0.113% in assay [2]; 2.42% in assay [3]; -6.72% in assay [4]; -2.48% in assay [5].
Consider `CC1(C(=O)NC2CCCCC2)Cn2c(cc3occc32)C(=O)N1C1CCCCCC1` (stereo not drawn), for which the activity change, negative = inhibition in assay [1] stood at 8.14%; in assay [2] it was 0%; in assay [3] it was 8.35%; in assay [4], 17.1%; in assay [5] it was 5.74%.
For `CC(C)N1CC[C@@H]2[C@H]1C(=O)NC[C@H](CCC(=O)NCc1ccc(F)cc1)N2C`, the activity change, negative = inhibition in assay [1] was -0.539%; in assay [2], -1.03%; in assay [3], 1.33%; in assay [4], -0.293%; in assay [5], 1.81%.
Consider `CC1CCN(CCCNC(=O)CCc2nnc3n(Cc4ccc(F)cc4)c(=O)c4ccccc4n23)CC1`, for which the activity change, negative = inhibition in assay [1] was 3.14%; in assay [2] it was 0.991%; in assay [3] it was -59.4%; in assay [4], 1.12%; in assay [5] it was 0.153%.
Regarding `CC1=CC(=O)C(=C(C)C)CC2C1CCC2(C)O` (stereo not drawn), the activity change, negative = inhibition was 3.47% in assay [1]; 3.51% in assay [2]; 6.24% in assay [3]; -9.86% in assay [4]; 0.144% in assay [5].
For `O=C(c1ccc2ncccc2c1)N1CC(n2ccnc2)C1`, the activity change, negative = inhibition in assay [1] was -3.49%; in assay [2], -4.05%; in assay [3] it was -1.68%; in assay [4], -1.11%; in assay [5], -19.8%.
`CCOC(=O)c1cc2n(n1)CC(C)(C(=O)NC1CCCCCC1)N(CCc1cccs1)C2=O` (stereo not drawn): the activity change, negative = inhibition is -0.708% in assay [1]; 9.44% in assay [2]; -12.2% in assay [3]; -4.12% in assay [4]; 4.35% in assay [5].
Take `COc1cc2c(N3CCN(C(=O)Nc4ccc(OC(C)C)cc4)CC3)ncnc2cc1OCCCN1CCCCC1`: the activity change, negative = inhibition in assay [1] was -6.74%; in assay [2], 6.55%; in assay [3], -29.3%; in assay [4] it was -34.3%; in assay [5], -4.61%.
With `O=S(=O)(Nc1cccc2c1CCCC2)c1ccc2[nH]c3c(c2c1)CCCC3`, the activity change, negative = inhibition is 0.037% in assay [1]; 0% in assay [2]; -3.72% in assay [3]; -27.3% in assay [4]; -3.77% in assay [5].
With `COC(=O)c1ccc(COc2ccc3c(-c4ccccc4)cc(=O)oc3c2C)o1`, the activity change, negative = inhibition is -0.122% in assay [1]; 0% in assay [2]; 6.04% in assay [3]; 3.29% in assay [4]; -0.785% in assay [5].
For the molecule `COC(=O)C#Cc1ccc([N+](=O)[O-])cc1`, the activity change, negative = inhibition in assay [2] was -20.1%; in assay [4] it was -12.3%; in assay [5], -1.7%.
In the case of `NC(=O)c1cn(Cc2c(F)cccc2F)nn1`, the activity change, negative = inhibition in assay [1] is -5.75%; in assay [2], 4.64%; in assay [3] it was 1.79%; in assay [4], -14%; in assay [5], 3.46%.
Regarding `COc1cccc(CN2CCC3(CC2)COc2ccccc2CN3)c1`, the activity change, negative = inhibition is 7.56% in assay [1]; -6.05% in assay [2]; -11.2% in assay [3]; -10.9% in assay [4]; -8.17% in assay [5].
On to `CCN1C(=O)c2cc(C(=O)NCc3ccc(Cl)cc3)nn2CC1(C)C(=O)NC1CCCC1` (stereo not drawn), for which the activity change, negative = inhibition in assay [1] was -0.524%; in assay [2] it was 0%; in assay [3] it was -0.381%; in assay [4], -0.805%; in assay [5] it was -0.807%.
The matching figures for `C[C@@H]1C[C@@H]([C@@H](O)C(C)(C)O)O[C@H]2C[C@@]3(C)C(=C12)C[C@H](O)[C@H]1[C@@]2(C)CCC(=O)C(C)(C)C2CC[C@@]13C` (stereo partly drawn): 3.83%, 3.96%, 9.46%, -8.77% and -3.61%.
As for `OC(c1ccc(-c2ccc(CN3CCN(Cc4ccncc4)CC3)cc2)c(F)c1)(C(F)(F)F)C(F)(F)F`, the activity change, negative = inhibition is -8.77% in assay [1]; -19.3% in assay [2]; -7.47% in assay [3]; -24.6% in assay [4]; -18.2% in assay [5].
Turning to `CCCn1c(=O)c2ccccc2n2c(=O)n(Cc3cccc(C)c3)nc12`, the activity change, negative = inhibition in assay [1] is 0.05%; in assay [2] it was 0%; in assay [3], 7.47%; in assay [4], 0.814%; in assay [5], 2.47%.
Consider `COCCN1CC(CO)C2(CCN(C3CCN(C(C)=O)CC3)CC2)C1` (stereo not drawn), for which the activity change, negative = inhibition was -5.78% in assay [1]; -12.6% in assay [2]; -5.16% in assay [3]; -15.7% in assay [4]; -9.42% in assay [5].
With `COc1cccc(N2C(=O)CSc3c(c4ccccc4n3C)C2C(=O)NCc2ccccc2)c1` (stereo not drawn), the activity change, negative = inhibition in assay [1] came to 10.4%; in assay [2] it was 0%; in assay [3] it was 8.16%; in assay [4], 11.3%; in assay [5], 6.76%.
Consider `Cc1ccc(Nc2ccn3c(=O)n(CC(=O)Nc4cc(F)cc(F)c4)nc3n2)cc1`, for which the activity change, negative = inhibition in assay [1] is -1.17%; in assay [2], 2.96%; in assay [3], -8.95%; in assay [4], -20.1%; in assay [5], -4.19%.
`COCC(=O)N1CC(C(=O)N2CCCCC2)[C@H](c2ccncc2)C1` (stereo partly drawn): the activity change, negative = inhibition is -2.42% in assay [1]; -0.522% in assay [2]; -0.913% in assay [3]; -1.77% in assay [4]; 1.59% in assay [5].
In the case of `O=C(c1ccccc1)N1CCCC2(CC(c3ccccc3)=NO2)C1` (stereo not drawn), the activity change, negative = inhibition was -2.48% in assay [1]; -0.211% in assay [2]; 1.41% in assay [3]; -1.45% in assay [4]; 2.8% in assay [5].
Consider `COc1ccc(C2(C#N)CCC(C(=O)O)CC2)cc1OC1CCCC1` (stereo not drawn), for which the activity change, negative = inhibition in assay [1] is 6.14%; in assay [2], 4.76%; in assay [3], 6.79%; in assay [4], -7.74%; in assay [5], 4.16%.
In the case of `CC1CCCCC1NC(=O)C1(C)Cn2c(cc3sccc32)C(=O)N1c1ccc(Cl)cc1` (stereo not drawn), the activity change, negative = inhibition was -1.98% in assay [1]; 0% in assay [2]; -1.32% in assay [3]; -7.06% in assay [4]; -1.46% in assay [5].
The matching figures for `CCC(C(=O)NCc1ccc2c(c1)OCO2)n1ccc2cc(S(=O)(=O)N3CCCCC3)ccc21` (stereo not drawn): 7.54%, 0.288%, 8.14%, 6.41% and 6.64%.
As to `CC[C@H]1OC(=O)[C@H](C)[C@@H](O[C@H]2C[C@@](C)(OC)[C@@H](O)[C@H](C)O2)[C@H](C)[C@@H](O[C@@H]2O[C@H](C)C[C@H](N(C)C)[C@H]2O)[C@](C)(O)C[C@@H](C)C(=O)[C@H](C)[C@H]2OC(=O)O[C@@]21C`, the activity change, negative = inhibition in assay [1] is -1.92%; in assay [2], 0.576%; in assay [3], 9.32%; in assay [4], -12.2%; in assay [5], 2.82%.
Take `Cc1cccc(-c2n[nH]n3c2nc(=O)c2ccc(C(=O)N4CCN(c5ccccc5F)CC4)cc23)c1`: the activity change, negative = inhibition in assay [1] was -16.5%; in assay [2] it was 0%; in assay [3] it was 1.1%; in assay [4], -5.59%; in assay [5], -3.21%.
In the same order, the values of `CC(C)CCn1c(=O)c2ccccc2n2c(=O)n(Cc3cccc(F)c3)nc12` are -1.84%, 1.12%, 6.44%, -12.1% and -0.89%.
Regarding `CC1CCC(NC(=O)C2(C)Cn3c(nc4ccccc43)C(=O)N2CCc2ccc(Cl)cc2)CC1` (stereo not drawn), the activity change, negative = inhibition in assay [1] was -0.474%; in assay [2], 3.29%; in assay [3], -3.04%; in assay [4], -1.26%; in assay [5] it was -6.67%.
With `CN1CCC(Oc2ncccc2NC(=O)c2ccncc2)C1` (stereo not drawn), the activity change, negative = inhibition in assay [1] is -36.6%; in assay [2] it was -17.4%; in assay [3], -35.8%; in assay [4] it was -6.03%; in assay [5], -25.1%.
Take `CC(=O)Nc1c2n(c3ccccc13)CC(C)(C(=O)NC1CCCC1)N(Cc1ccccc1F)C2=O` (stereo not drawn): the activity change, negative = inhibition is -1.17% in assay [1]; 1.27% in assay [2]; 2.26% in assay [3]; -2.5% in assay [4]; 1.94% in assay [5].
On to `O=C(Cn1ccc2cc(S(=O)(=O)N3CCCCC3)ccc21)NCc1ccco1`, for which the activity change, negative = inhibition in assay [1] was 2.66%; in assay [2], 5.09%; in assay [3], -1.16%; in assay [4], -2.36%; in assay [5] it was -0.566%.
For `O=C(c1cnccn1)N1CCC(Oc2cccnc2)C1` (stereo not drawn), the activity change, negative = inhibition is 82.3% in assay [1]; -0.351% in assay [2]; 0.414% in assay [3]; -0.823% in assay [4]; 2.3% in assay [5].
As for `CC1CCC2(C)C(CC(O)C(O)C23CO3)C1(C)CCC1=CC(=O)OC1O` (stereo not drawn), the activity change, negative = inhibition was -17.5% in assay [1]; -2.74% in assay [2]; 9% in assay [3]; -14.9% in assay [4]; -7.27% in assay [5].
For `FC(F)(F)c1ccc(O[C@H]2COCCN(Cc3cccnc3)C2)nc1`, the activity change, negative = inhibition in assay [1] was 0.301%; in assay [2], 2.52%; in assay [3] it was 2.76%; in assay [4] it was -2.48%; in assay [5], -30.8%.
On to `COc1ccc(-c2nc(-c3ccccc3)nc3c2CN([S+](=O)([O-])c2cccs2)CC3)cc1`, for which the activity change, negative = inhibition in assay [1] was -6.34%; in assay [2], -9.41%; in assay [3], -3.16%; in assay [4], -19.5%; in assay [5], -12.7%.

Values taken from PubChem BioAssay AID1745853 (National Center for Advancing Translational Sciences (NCATS), 2022).
